In PubChem BioAssay AID1476 (National Center for Advancing Translational Sciences (NCATS), 2009):
The campaign covered roughly 200,000 compounds. About 4,500 (2.2%) were called active. Inconclusive results, whose numbers are uncertain, are shown with a selection of clear calls. Calls come from the whole dose curve; as a rule, active = well fitted inhibition curve with a large enough effect; inconclusive = small, poorly fitted or top-dose-only effect, or effect the other way; inactive = flat fitted curve, though single readings scatter. Where the call is inconclusive, the potency comes from a doubtful curve fit.

The compounds below were run against Cruzipain (Trypanosoma cruzi) (UniProt P25779) (assay: qHTS Assay for Promiscuous and Specific Inhibitors of Cruzain (without detergent)). Conditions: purified cruzain, Z-FR-AMC fluorescence, no detergent.
Outline: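 Purified cruzain at 1.5 nM, pre-incubated 15 min with compound at room temperature in 100 mM sodium acetate pH 5.5, 5 mM DTT, 0.00005% Triton X-100. Reaction started with 2 uM Z-FR-AMC; AMC fluorescence increase over 60 s gives rate.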
Note: nearly all actives have a fitted effect of over 40% in size.
Potency is the fitted concentration of half-maximal effect; tags give direction and shape of the fitted curve.
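Throughout, for max response, negative = inhibition: plate controls were enzyme without inhibitor for no effect and buffer without enzyme for full effect.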

UniProt P25779, sequence (P25779 whole entry, looked up): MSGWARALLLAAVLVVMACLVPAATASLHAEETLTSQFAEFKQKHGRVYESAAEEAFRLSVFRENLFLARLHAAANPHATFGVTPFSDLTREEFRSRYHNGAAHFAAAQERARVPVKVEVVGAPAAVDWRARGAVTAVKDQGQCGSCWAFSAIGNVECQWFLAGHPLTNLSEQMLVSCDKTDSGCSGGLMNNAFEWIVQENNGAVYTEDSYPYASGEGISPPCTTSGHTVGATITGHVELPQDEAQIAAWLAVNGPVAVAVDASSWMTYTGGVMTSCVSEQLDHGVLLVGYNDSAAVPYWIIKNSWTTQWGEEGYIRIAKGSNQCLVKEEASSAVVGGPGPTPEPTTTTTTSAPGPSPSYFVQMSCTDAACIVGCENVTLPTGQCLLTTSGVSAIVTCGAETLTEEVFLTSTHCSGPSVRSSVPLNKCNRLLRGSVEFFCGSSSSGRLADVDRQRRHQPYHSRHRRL

Compound	max response, negative = inhibition	Potency
Cc1ccc(S(=O)(=O)c2nnn3c2nc(N2CCCC2)c2sccc23)cc1	inactive: 11.4%	–
c1ccc(-c2cccc(N3CC[C@@]4(CCCNC4)C3)c2)cc1	inactive: -24.6%	–
CCC(=O)NC(=S)Nc1ccc(NC(=O)COc2ccc(Cl)c(C)c2)cc1	–	inconclusive: 39.8 µM [inhibitor, single point]
CCOC(=O)c1c(C)c(P(=S)(N2CCOCC2)N2CCOCC2)n(C)c1C	–	inconclusive: 39.8 µM [activator, single point]
O=C(c1cc(NC(=O)C23CC4CC(CC(C4)C2)C3)cc(NC(=O)C23CC4CC(CC(C4)C2)C3)c1)N1CCCCC1	–	inconclusive: 31.6 µM [inhibitor, single point]
Cc1cccc(N(C)c2ccc3cc(S(=O)(=O)N4CCCC4)ccc3n2)c1	–	inconclusive: 39.8 µM [inhibitor, single point]
O=C1OC(c2cccs2)=N/C1=C\c1ccc(-c2ccccc2Cl)o1	–	inconclusive: 25.1 µM [inhibitor, partial curve]
CCOC(=O)c1c(NC(=O)C2=C(C)NC(=S)NC2c2ccc(F)cc2)sc(C)c1C (configuration not stated)	–	active: 15.8 µM
CCN(CC)S(=O)(=O)c1ccc(N2CCOCC2)c(NC(=O)c2cc(C)cc(C)c2)c1	–	inconclusive: 39.8 µM [activator, single point]
COC(=O)c1ccc(C(NC(=O)OCc2ccccc2)/C(=C/[C@@H](C)C(=O)NCc2nc3ccccc3s2)c2cccnc2)cc1 (some centres not stated)	–	inconclusive: 39.8 µM [activator, single point]
Cc1noc(C)c1CSc1ncnc2sc3c(c12)CCC(C)C3 (configuration not stated)	inactive: 1.11%	–
C=C1C([C@@]2(C)C(OC(C)=O)CC(=O)O[C@@](C)(COC(C)=O)C2CC(=O)OC)C(OC=O)C(OC(=O)C(O)C(C)CC)[C@]2(C)C(c3ccoc3)CC(=O)C12O (some centres not stated)	–	inconclusive: 3.16 µM [activator, full curve]
CCN1C(=O)c2cccc3c(NC(=O)c4ccc(S(=O)(=O)N(C)C)cc4)ccc1c23	–	inconclusive: 39.8 µM [activator, single point]
CCCCN(CC)CCCNC(=O)Nc1sc2nc3n(c(=O)c2c1C)CCC(C)CC3 (configuration not stated)	inactive: 47%	–
CC(NC(=O)C1CCN(c2nc3ccccc3nc2C(F)(F)F)CC1)c1ccccc1 (configuration not stated)	inactive: -1.98%	–
FC(F)(F)c1cc(CN2CCC3(CCNCC3)CC2)cc(C(F)(F)F)c1	inactive: -0.219%	–
CCOC(=O)c1cc(S(=O)(=O)N2CCN(c3ccccc3F)CC2)[nH]n1	inactive: -1.12%	–
